# PubChem BioAssay AID686978 (National Center for Advancing Translational Sciences (NCATS), 2013)
# “And” between values parts separate entries of the source, which are not always exact repeats. Equal entries are not always repeated. The whole screen tested about 420,000 compounds, of which about 64,000 (15%) were called active. This list was built around the results that the source calls inconclusive (neither active nor inactive); the mix of calls is not that of the screen. The call rests on the fitted dose curve; in most records, active means well fitted inhibition curve with a large enough effect; inconclusive means small, poorly fitted or top-dose-only effect; inactive means flat fitted curve, though single readings scatter. Potencies of inconclusive entries are doubtful fits and often do not repeat.
# Experiment: qHTS for Inhibitors of human tyrosyl-DNA phosphodiesterase 1 (TDP1): qHTS in cells in absence of CPT; further: nearly all actives have a fitted effect of over 55% in size
# Settings: DT40 Tdp1-/- hTDP1 cells, no CPT, ATP luminescence, 48 h; activity change, negative = growth inhibition: at 46.2 µM (top of the series)
# Method in brief: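 A cellular qHTS used chicken DT40 cells lacking endogenous Tdp1 but carrying stably transfected human TDP1. Compounds were applied without camptothecin, and cell growth kinetics were judged by ATP-dependent luminescence after ≥48 hr.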
# On the % scale 0 is the no-effect control and ±100 the full control effect; potency means the concentration at half of the fitted maximal effect; tags describe the fitted curve by direction and shape.
SMILES,Potency,"activity change, negative = growth inhibition"
CCOC(=O)c1ccccc1NC(=O)N1CCc2c(sc(C)c2CC)C1c1ccccc1 (stereo not given),active: 16.4 µM,–
Cc1ccc(CNC(=O)CSCc2cccc(F)c2)cc1,"inconclusive: 29.1 µM [inhibitor, single point]",–
CCCN(CCC)C(=O)c1ccccc1C(=O)N(CCC)CCC,"inconclusive: 25.9 µM [inhibitor, single point]",–
COc1ccccc1CCNC(=O)CCSc1nc(-c2ccco2)cc(C(F)(F)F)n1,"inconclusive: 23.1 µM [inhibitor, single point]",–
COc1ccc(NC(=O)CSc2nnc(C3CC3)n2C)cc1,"inconclusive: 29.1 µM [inhibitor, single point]",–
Cc1c(Cl)cccc1NS(=O)(=O)c1c(C(=O)N2CCOCC2)c(C)n(C)c1C,–,inactive: -0.871%
CCOc1ccc(OCCN2C(=O)NC(Cc3c[nH]c4ccccc34)C2=O)cc1 (stereo not given),–,inactive: -26.2%
CC(C)Cn1c(O)c(/C=C2\C=NN=C2c2ccccc2)sc1=S,"inconclusive: 18.4 µM [inhibitor, single point]",–
CCN(CC)CCNC(=O)c1cnn(-c2nccc(-c3cc4ccccc4o3)n2)c1C,"inconclusive: 18.4 µM [inhibitor, single point]",–
Cc1ccc(C)c(-c2ccc(=O)n(Cc3cccc(Br)c3)n2)c1,"inconclusive: 23.1 µM [inhibitor, single point]",–
O=C1CN(C(=O)c2ccccc2Cl)c2ccccc2N1,–,inconclusive: -30.9% [inhibitor]
CCOC(=O)[C@]12CCCC=C1N(Cc1ccc(Cl)cc1Cl)C(=O)[C@H](CC(=O)NCCCCc1ccccc1)C2,"inconclusive: 23.1 µM [inhibitor, single point]",–
CCOC(=O)c1c(-c2ccccc2)nc2ccc(Cl)cn12,active: 16.4 µM,–
CCCc1cc(=O)[nH]c(SCc2cc(=O)oc3c(C)c(C)ccc23)n1,–,inactive: -12.2%
Cn1cc(-c2csc(C(O)c3ccccc3)n2)cn1 (stereo not given),"inconclusive: 29.1 µM [inhibitor, single point]",–
O=S(=O)(c1ccccc1C(F)(F)F)N1CCN(CC(O)COc2ccccc2F)CC1 (stereo not given),"inconclusive: 16.4 µM [inhibitor, single point]",–
CCOc1ccc(-n2c(Cc3ccccc3)nnc2SCc2nc(-c3ccccc3OC)no2)cc1,active: 16.4 µM,–
C=CCNCCCCOc1ccccc1-c1ccccc1,"inconclusive: 16.4 µM [inhibitor, single point]",–
CSCCC(NC(=O)c1ccccc1Br)C(=O)NCCCn1nc(C)cc1C (stereo not given),–,inactive: -0.514%
Cc1ccc(C)c(OCCCNC2CCCC2)c1C,active: 9.2 µM,–
O=C1CN(C(=O)CSc2nc3c(cnn3-c3ccccc3)c(=O)[nH]2)c2ccccc2N1,"inconclusive: 11.6 µM [inhibitor, partial curve]",–
C#CCOCCOCCOCCNc1nc(N2CCOCC2)nc(N2CCN(C(=O)[C@H](CCCCN)n3cc(CCCC)nn3)CC2)n1,active: 1.3 µM,–
COc1ccc(Cc2nnc(SCC(=O)Nc3ccc(C)cc3C)[nH]c2=O)cc1,"inconclusive: 29.1 µM [inhibitor, single point]",–
C/C(=N\NC(=O)c1cccc(S(=O)(=O)N2CCCC2)c1)c1ccc(C)cc1,"inconclusive: 18.4 µM [inhibitor, single point]",–

SMILES,Potency,"activity change, negative = growth inhibition"
Cn1cc(C(=O)Nc2ccc(Cl)c(Cl)c2)cn1,"inconclusive: 16.4 µM [inhibitor, single point]",–
CC(=O)c1ccc(C(C)(C)c2ccc(C(C)=O)s2)s1,active: 23.1 µM,–
CCOC(=O)C1CCCN(c2nc(C)nc3c2oc2ccccc23)C1 (stereo not given),active: 20.6 µM,–
COC(=O)CCCn1cc(CN2CC(N(C)C)CS2(=O)=O)nn1 (stereo not given),–,inactive: -21%
Cc1cc(C)c(OCCNCc2ccccc2)c(C)c1,"inconclusive: 23.1 µM [inhibitor, single point]",–
COc1ccc(CCNC(=O)c2c(C)nc3ccccn23)cc1,"inconclusive: 23.1 µM [inhibitor, single point]",–
COc1ccc2oc(C(=O)NC3CCCCC3)c(C)c2c1,"inconclusive: 20.6 µM [inhibitor, single point]",–
CN(C)CCCn1c(=O)n(Cc2ccccc2)c(=O)c2c3c(sc21)CCCCC3,"inconclusive: 18.4 µM [inhibitor, single point]",–
O=C(c1ccc(-n2cccn2)cc1)N1CCc2c([nH]c3ccccc23)C1c1ccccn1 (stereo not given),"inconclusive: 29.1 µM [inhibitor, single point]",–
COc1ccc(Nc2ccncc2[N+](=O)[O-])cc1,"inconclusive: 8.2 µM [inhibitor, partial curve]",–
c1ccc(-c2nnc3sc(-c4csc5c4CCCC5)nn23)cc1,"inconclusive: 20.6 µM [inhibitor, single point]",–
Cc1cc(NC(=O)CSc2nc(N)c(NC(=O)c3ccccc3F)c(=O)[nH]2)no1,–,inactive: -0.181%
CCOC(=O)c1[nH]cnc1C(=O)NC(C)C,–,inconclusive: -0.794% [inhibitor]
CSc1ccc(CN(C)C(=O)CNC(=O)c2ccc3c(c2)OCO3)cc1,–,inconclusive: -34.4% [inhibitor]
C=CCN(C(=O)CNC(=O)c1ccco1)C(C(=O)NC1CCCCC1)c1ccc(OC)cc1OC (stereo not given),–,inactive: -2.33%
CC(C)(C)OC(=O)C[C@H]1C/C=C\C[C@H](CC(=O)N[C@H](CO)Cc2ccccc2)C(=O)N[C@H](Cc2ccccc2)COC1=O,active: 23.1 µM,–
CC(=O)OCCSc1c(-c2ccccc2)c2cc(Cl)ccc2[nH]c1=O,"inconclusive: 29.1 µM [inhibitor, single point]",–
NC(=O)C1CC(=O)N(c2ccc(OCC(=O)N3CCCC3)cc2)C1 (stereo not given),–,inactive: -14.4%
Cc1ccc2sc(N(CCCN(C)C)C(=O)c3ccc(S(=O)(=O)N(C)C4CCCCC4)cc3)nc2c1C,active: 5.8 µM,–
Cc1ccccc1Nc1nc(N)nc(COC(=O)c2cccc(S(=O)(=O)N(C)C)c2)n1,"inconclusive: 20.6 µM [inhibitor, single point]",–
CCOc1nc(NCCN2CCOCC2)nc(NC(C)C)n1,–,inactive: -16.3%
Cc1ccc(C)c(CSc2c(C(C)C)cnc3c2c(=O)n(C)c(=O)n3C)c1,"inconclusive: 23.1 µM [inhibitor, single point]",–
COc1ccc(N2CCN(C(CNC(=O)c3ccc(C)cc3)c3ccc4c(c3)OCO4)CC2)cc1 (stereo not given),active: 5.8 µM,–
Cc1[nH]c(-c2ccc3c(c2)OCO3)nc1C(=O)O,active: 18.4 µM,–

SMILES,Potency,"activity change, negative = growth inhibition"
O=C(/C=C/c1ccccc1)Nn1c(-c2cccs2)nc2ccccc2c1=O,"inconclusive: 25.9 µM [inhibitor, single point]",–
CCN(CCn1cccn1)C(=O)C1CCC(=O)N(CC2CCCCC2)C1 (stereo not given),–,inactive: 16.8%
CCOC1=C2[C@@H](CN(S(=O)(=O)c3ccc(C)cc3)[C@H]2c2cccs2)[C@H]2C(=O)N(c3ccccc3)C(=O)[C@H]2C1,"inconclusive: 23.1 µM [inhibitor, single point]",–
Cn1c(C(=O)N2CCC(C(=O)N3CCN(Cc4ccc5c(c4)OCO5)CC3)CC2)cc2sccc21,"inconclusive: 29.1 µM [inhibitor, single point]",–
CN1Cc2sc(N)c(C#N)c2CC1(C)C,"inconclusive: 29.1 µM [inhibitor, single point]",–
CC(C)CNC(=S)N1CCC(NC(=O)C23CC4CC(CC(C4)C2)C3)CC1,"inconclusive: 23.1 µM [inhibitor, partial curve]",–
Cc1cc(Cl)c(OCCCNC2CCCC2)c(Br)c1,"inconclusive: 29.1 µM [inhibitor, single point]",–
C/C(=N\Nc1ncc(Cl)cc1Cl)c1ccc(OC(F)F)cc1,"inconclusive: 23.1 µM [inhibitor, single point]",–
Cc1cccc(C(=O)Nc2ccccc2SCC(=O)Nc2ccc(C)c(Cl)c2)c1,"inconclusive: 18.4 µM [inhibitor, partial curve, poor fit]",–
Cc1ccccc1OCC(=O)Nc1sc2c(c1C#N)CCC2,–,inactive: -29.4%
CCOc1ccccc1CNC(=O)c1nn(C)c2c1CS(=O)(=O)c1ccccc1-2,"inconclusive: 23.1 µM [inhibitor, single point] and inconclusive: 16.4 µM [inhibitor, single point]",–
CC(C)c1ccc(CNc2nc(-c3ccco3)nn2S(=O)(=O)c2ccccc2)cc1,"inconclusive: 18.4 µM [inhibitor, single point]",–
O=C(CCn1c(SCC(=O)c2ccccc2)nc2ccccc2c1=O)NCc1ccc(F)cc1,–,inactive: -5.7%
CC(C)c1ccc(NC(=O)c2cc(S(=O)(=O)N3CCCC3)c[nH]2)cc1,"inconclusive: 18.4 µM [inhibitor, single point]",–
CCOc1ccc(C2/C(=C(/O)c3ccc4c(c3)CC(C)O4)C(=O)C(=O)N2CCCn2ccnc2)cc1 (stereo not given),–,inactive: -4%
CCCS(=O)(=O)NCCc1cc2ccc(C)cc2[nH]c1=O,–,inactive: 2.02%
Cc1cc2c(cc1NC(=O)c1ccc(C(C)(C)C)cc1)n(C)c(=O)c(=O)n2C,active: 25.9 µM,–
Cc1cc(C)cc(OCC(=O)Nc2ccccc2C(=O)NCc2ccco2)c1,"inconclusive: 20.6 µM [inhibitor, single point]",–
N#CCCn1cc(/C=N/O)c(-c2ccc(-c3ccccc3)cc2)n1,"inconclusive: 23.1 µM [inhibitor, single point]",–
N#Cc1ccccc1S(=O)(=O)N1CCN(C(=O)C2CCC2)CC1,–,inactive: -1.94%
Cc1ccc(C2(c3noc(CN(C)Cc4cnn(C)c4)n3)CCCC2)cc1,"inconclusive: 29.1 µM [inhibitor, single point]",–
CCOc1cccc(-c2nnc3sc(C4CCCCC4)nn23)c1,"inconclusive: 16.4 µM [inhibitor, single point]",–
